In the supplement of paper PMC4967469:

What follows are cell lines tested with CC(C)=CC[C@@H](O)C1=CC(=O)c2c(O)ccc(O)c2C1=O [Shikonin] (assay: Viability of human cancer cell lines after 72 h of drug (GDSC screen)). Details: top dose 16 µM; top dose inferred.
Procedure: (§1)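 Human cancer cell lines in 384-well plates, medium with 10% serum, drug for 72 h over a 256-fold dose range (nine 2-fold or five 4-fold steps up to the top dose). Adherent lines were fixed and stained with the nucleic acid dye Syto60, suspension lines read with resazurin; signal relative to control wells, capped at 0 and 100%. One two-parameter sigmoid per drug and line, fitted in a mixed model over all curves with the slope shared within a line.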

| Cell Line | AUC | IC50 |
| --- | --- | --- |
| COLO-829 (melanoma, adherent) | 0.42 | 0.547 µM |
| Hs-445 (Hodgkin lymphoma, suspension) | 0.312 | 0.312 µM |
| SK-N-FI (neuroblastoma, adherent) | 0.653 | 2.65 µM |
| SK-UT-1 (soft tissue, adherent) | 0.09 | < 0.0625 µM |
| ST486 (Burkitt lymphoma, suspension) | 0.105 | 0.0642 µM |
| SU-DHL-4 (B-cell lymphoma, suspension) | 0.609 | 1.84 µM |
| SU-DHL-6 (B-cell lymphoma, suspension) | 0.558 | 1.38 µM |
| SU-DHL-16 (B-cell lymphoma, suspension) | 0.314 | 0.353 µM |
| SUP-B15 (lymphoblastic leukaemia, suspension) | 0.465 | 0.806 µM |
| SUP-HD1 (Hodgkin lymphoma, suspension) | 0.489 | 0.937 µM |
| SUP-M2 (anaplastic large cell lymphoma, suspension) | 0.665 | 2.55 µM |
| SUP-T1 (T-cell lymphoblastic leukaemia, suspension) | 0.591 | 1.74 µM |
| SW954 (urogenital system, adherent) | 0.449 | 0.725 µM |
| SW962 (urogenital system, adherent) | 0.468 | 0.803 µM |
| TE-6 (oesophagus, adherent) | 0.681 | 3.51 µM |
| TE-15 (oesophagus, suspension) | 0.357 | 0.38 µM |
| U-698-M (B-cell leukaemia, suspension) | 0.285 | 0.246 µM |
| UACC-257 (melanoma, adherent) | 0.641 | 2.71 µM |
| WSU-NHL (lymphoid neoplasm, suspension) | 0.316 | 0.328 µM |
| YT (lymphoid neoplasm, suspension) | 0.339 | – |

These cell lines were tested with CCNc1cc(NC2CCC(O)CC2)nc(Nc2ccc3c(ccn3Cc3ccccc3)c2)n1 [CGP-082996 (CINK4)] in the same assay as above. Details: top dose 5.12 µM; top dose inferred.
Procedure: as §1

| Cell Line | AUC | IC50 |
| --- | --- | --- |
| COLO-829 (melanoma, adherent) | 0.96 | > 5.12 µM |
| Hs-445 (Hodgkin lymphoma, suspension) | 0.982 | > 5.12 µM |
| SK-N-FI (neuroblastoma, adherent) | 0.983 | > 5.12 µM |
| SK-UT-1 (soft tissue, adherent) | 0.964 | > 5.12 µM |
| ST486 (Burkitt lymphoma, suspension) | 0.856 | 3.39 µM |
| SU-DHL-4 (B-cell lymphoma, suspension) | 0.873 | 2.7 µM |
| SU-DHL-6 (B-cell lymphoma, suspension) | 0.885 | 3.14 µM |
| SU-DHL-16 (B-cell lymphoma, suspension) | 0.95 | > 5.12 µM |
| SUP-B15 (lymphoblastic leukaemia, suspension) | 0.866 | 4.25 µM |
| SUP-HD1 (Hodgkin lymphoma, suspension) | 0.967 | > 5.12 µM |
| SUP-M2 (anaplastic large cell lymphoma, suspension) | 0.909 | 4.11 µM |
| SUP-T1 (T-cell lymphoblastic leukaemia, suspension) | 0.904 | > 5.12 µM |
| SW954 (urogenital system, adherent) | 0.898 | > 5.12 µM |
| SW962 (urogenital system, adherent) | 0.845 | > 5.12 µM |
| TE-6 (oesophagus, adherent) | 0.943 | > 5.12 µM |
| TE-15 (oesophagus, suspension) | 0.853 | 4.81 µM |
| U-698-M (B-cell leukaemia, suspension) | 0.919 | > 5.12 µM |
| UACC-257 (melanoma, adherent) | 0.874 | > 5.12 µM |
| WSU-NHL (lymphoid neoplasm, suspension) | 0.982 | > 5.12 µM |
| YT (lymphoid neoplasm, suspension) | 0.937 | > 5.12 µM |

What follows are cell lines tested with CNC(=O)c1ccc(Nc2cc(Nc3ccccc3S(=O)(=O)C(C)C)c3cc[nH]c3n2)nc1 [HG-5-113-01] in the same assay as above. Details: top dose 10 µM; top dose inferred.
Procedure: as §1

| Cell Line | AUC | IC50 |
| --- | --- | --- |
| COLO-829 (melanoma, adherent) | 0.951 | > 10 µM |
| Hs-445 (Hodgkin lymphoma, suspension) | 0.798 | 4.34 µM |

What follows are cell lines tested with COc1cc(-c2nn([C@H]3CC[C@H](N4CCN(C(C)=O)CC4)CC3)c3ncnc(N)c23)ccc1NC(=O)c1cc2ccccc2n1C [A-770041] in the same assay as above. Details: top dose 5.12 µM; top dose inferred.
Procedure: as §1

| Cell Line | AUC | IC50 |
| --- | --- | --- |
| COLO-829 (melanoma, adherent) | 0.86 | > 5.12 µM |
| Hs-445 (Hodgkin lymphoma, suspension) | 0.867 | 4.05 µM |
| SK-N-FI (neuroblastoma, adherent) | 0.972 | > 5.12 µM |
| SK-UT-1 (soft tissue, adherent) | 0.937 | > 5.12 µM |
| ST486 (Burkitt lymphoma, suspension) | 0.889 | 4.65 µM |
| SU-DHL-4 (B-cell lymphoma, suspension) | 0.07 | 0.0248 µM |
| SU-DHL-6 (B-cell lymphoma, suspension) | 0.091 | 0.0268 µM |
| SU-DHL-16 (B-cell lymphoma, suspension) | 0.358 | 0.145 µM |
| SUP-B15 (lymphoblastic leukaemia, suspension) | 0.514 | 0.349 µM |
| SUP-HD1 (Hodgkin lymphoma, suspension) | 0.987 | > 5.12 µM |
| SUP-M2 (anaplastic large cell lymphoma, suspension) | 0.988 | > 5.12 µM |
| SUP-T1 (T-cell lymphoblastic leukaemia, suspension) | 0.981 | > 5.12 µM |
| SW954 (urogenital system, adherent) | 0.756 | 1.77 µM |
| SW962 (urogenital system, adherent) | 0.874 | > 5.12 µM |
| TE-6 (oesophagus, adherent) | 0.908 | > 5.12 µM |
| TE-15 (oesophagus, suspension) | 0.503 | 0.327 µM |
| U-698-M (B-cell leukaemia, suspension) | 0.971 | > 5.12 µM |
| UACC-257 (melanoma, adherent) | 0.948 | > 5.12 µM |
| WSU-NHL (lymphoid neoplasm, suspension) | 0.987 | > 5.12 µM |
| YT (lymphoid neoplasm, suspension) | 0.992 | > 5.12 µM |

The cell lines below were run with COc1cc(N2CCN(C)CC2)ccc1Nc1ncc2c(n1)N(C)c1ccccc1C(=O)N2C [XMD8-85] in the same assay as above. Details: top dose 8 µM; top dose inferred.
Procedure: as §1

| Cell Line | AUC | IC50 |
| --- | --- | --- |
| COLO-829 (melanoma, adherent) | 0.884 | > 8 µM |
| Hs-445 (Hodgkin lymphoma, suspension) | 0.958 | > 8 µM |
| SK-N-FI (neuroblastoma, adherent) | 0.966 | > 8 µM |
| SK-UT-1 (soft tissue, adherent) | 0.846 | 5.09 µM |
| ST486 (Burkitt lymphoma, suspension) | 0.816 | 3.8 µM |
| SU-DHL-4 (B-cell lymphoma, suspension) | 0.822 | 3.07 µM |
| SU-DHL-6 (B-cell lymphoma, suspension) | 0.726 | 1.79 µM |
| SU-DHL-16 (B-cell lymphoma, suspension) | 0.918 | 6.03 µM |
| SUP-B15 (lymphoblastic leukaemia, suspension) | 0.811 | 4.03 µM |
| SUP-HD1 (Hodgkin lymphoma, suspension) | 0.938 | > 8 µM |
| SUP-M2 (anaplastic large cell lymphoma, suspension) | 0.988 | > 8 µM |
| SUP-T1 (T-cell lymphoblastic leukaemia, suspension) | 0.705 | 1.78 µM |
| SW954 (urogenital system, adherent) | 0.819 | 4.61 µM |
| SW962 (urogenital system, adherent) | 0.876 | > 8 µM |
| TE-6 (oesophagus, adherent) | 0.908 | > 8 µM |
| TE-15 (oesophagus, suspension) | 0.914 | > 8 µM |
| U-698-M (B-cell leukaemia, suspension) | 0.961 | > 8 µM |
| UACC-257 (melanoma, adherent) | 0.811 | 5.57 µM |
| WSU-NHL (lymphoid neoplasm, suspension) | 0.904 | > 8 µM |
| YT (lymphoid neoplasm, suspension) | 0.793 | 3.04 µM |

The cell lines below were run with Cc1cc(N2CCOCC2)cc2[nH]c(-c3c(NC[C@@H](O)c4cccc(Cl)c4)cc[nH]c3=O)nc12 [BMS-536924] in the same assay as above. Details: top dose 4 µM; screen: GDSC drug entry 1091; top dose inferred.
Procedure: as §1

| Cell Line | AUC | IC50 |
| --- | --- | --- |
| COLO-829 (melanoma, adherent) | 0.965 | > 4 µM |
| Hs-445 (Hodgkin lymphoma, suspension) | 0.912 | > 4 µM |
| SK-N-FI (neuroblastoma, adherent) | 0.713 | 0.992 µM |
| SK-UT-1 (soft tissue, adherent) | 0.972 | > 4 µM |
| ST486 (Burkitt lymphoma, suspension) | 0.989 | > 4 µM |
| SU-DHL-4 (B-cell lymphoma, suspension) | 0.997 | > 4 µM |
| SU-DHL-6 (B-cell lymphoma, suspension) | 0.993 | > 4 µM |
| SU-DHL-16 (B-cell lymphoma, suspension) | 0.96 | > 4 µM |
| SUP-HD1 (Hodgkin lymphoma, suspension) | 0.891 | > 4 µM |
| SUP-M2 (anaplastic large cell lymphoma, suspension) | 0.67 | 0.656 µM |
| SUP-T1 (T-cell lymphoblastic leukaemia, suspension) | 0.98 | > 4 µM |
| SW962 (urogenital system, adherent) | 0.87 | > 4 µM |
| TE-6 (oesophagus, adherent) | 0.974 | > 4 µM |
| TE-15 (oesophagus, suspension) | 0.979 | > 4 µM |
| U-698-M (B-cell leukaemia, suspension) | 0.977 | > 4 µM |
| UACC-257 (melanoma, adherent) | 0.914 | > 4 µM |
| WSU-NHL (lymphoid neoplasm, suspension) | 0.97 | > 4 µM |
| YT (lymphoid neoplasm, suspension) | 0.966 | > 4 µM |

Same assay, conditions: top dose 5.12 µM; screen: GDSC drug entry 62

| Cell Line | AUC | IC50 |
| --- | --- | --- |
| COLO-829 (melanoma, adherent) | 0.97 | > 5.12 µM |
| Hs-445 (Hodgkin lymphoma, suspension) | 0.869 | 4.14 µM |
| SK-N-FI (neuroblastoma, adherent) | 0.986 | > 5.12 µM |
| SK-UT-1 (soft tissue, adherent) | 0.95 | > 5.12 µM |
| ST486 (Burkitt lymphoma, suspension) | 0.952 | > 5.12 µM |
| SU-DHL-4 (B-cell lymphoma, suspension) | 0.91 | 3.51 µM |
| SU-DHL-6 (B-cell lymphoma, suspension) | 0.796 | 1.73 µM |
| SU-DHL-16 (B-cell lymphoma, suspension) | 0.896 | 3.27 µM |
| SUP-B15 (lymphoblastic leukaemia, suspension) | 0.925 | > 5.12 µM |
| SUP-HD1 (Hodgkin lymphoma, suspension) | 0.769 | 1.85 µM |
| SUP-M2 (anaplastic large cell lymphoma, suspension) | 0.898 | 3.72 µM |
| SUP-T1 (T-cell lymphoblastic leukaemia, suspension) | 0.976 | > 5.12 µM |
| SW954 (urogenital system, adherent) | 0.692 | 1.12 µM |
| SW962 (urogenital system, adherent) | 0.695 | 1.31 µM |
| TE-6 (oesophagus, adherent) | 0.944 | > 5.12 µM |
| TE-15 (oesophagus, suspension) | 0.636 | 0.803 µM |

Lines with a small IC50 respond at low doses; a limit (>, <) means that the fit lies beyond the doses tested. The AUC spans the tested range (256-fold, ending at the top dose) of the same fit; values near 1 show little effect. Where the top dose is marked as inferred, it was calculated from the reported fits. For part of these data: An entry number marks a drug with two screens in the source, which often give different values.
